Results: PubChem BioAssay AID485364 (National Center for Advancing Translational Sciences (NCATS), 2010)
Out of some 360,000 compounds screened, about 11,000 (3.1%) were called active. This list was built around the results that the source calls inconclusive (neither active nor inactive); the mix of calls is not that of the screen. The call rests on the fitted dose curve; in most records, active means well fitted inhibition curve with a large enough effect; inconclusive means small, poorly fitted or top-dose-only effect; inactive means no such curve, though single readings can be large or run the other way. No potency is given beside an inconclusive call; the fits are too rough.

target: Schistosoma mansoni thioredoxin glutathione reductase (TGR) (UniProt Q962Y6); experiment: qHTS Assay for the Inhibitors of Schistosoma Mansoni Peroxiredoxins; conditions: purified TGR, DTNB reduction, TNB absorbance 405 nm; series mostly up to 114 µM; further: nearly all actives have a fitted effect of over 60% in size
Method in brief: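 TGR 20 nM + NADPH 100 uM (dispensed conc.), cpd preinc 15 min RT; start with NADPH (500 uM addition) then DTNB (15 mM addition). Kinetic TNB absorbance, 405 nm filter. Four-parameter Hill fit across titration.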
Potency means the concentration at half of the fitted maximal effect; tags describe the fitted curve by direction and shape.

Compound | Potency
COc1ccc(NC(=S)Nc2ccc(S(N)(=O)=O)cc2)c(C)c1 | inconclusive [inhibitor, partial curve]
Cc1ccc(-c2nnn(CC(=O)N(CC(=O)NC3CCCC3)c3ccc(F)c(Cl)c3)n2)o1 | inactive
CCCCSc1nnc(-c2ccccc2N)c(=O)[nH]1 | inconclusive [inhibitor, full curve, poor fit]
O=[N+]([O-])c1cnc(Sc2ccncn2)s1 | active: 0.316 µM
CCOc1cc(/C=C2/COc3ccccc3C2=O)ccc1OCC(=O)N(C)C | active: 31.6 µM
O=C(O)CCc1ccc(-c2ccc(Cl)cc2)n1-c1cccc(C(F)(F)F)c1 | active: 25.1 µM
O=C1NC(=O)N(Cc2ccccc2)C(=O)/C1=C\N1CCCc2ccccc21 | inconclusive [inhibitor, full curve]
CCCCCC/C=C/c1ccc(OC)c([C@H]2[C@H]3C=CC[C@@H](C)[C@@H]3C(=O)N2Cc2ccccc2)c1 | inconclusive [inhibitor, partial curve]
Cc1cc(C(=O)COC(=O)c2ccc3c(c2)OCO3)c(C)n1Cc1cccs1 | inconclusive [inhibitor, single point]
Cc1[nH]c2ccccc2c1C(=O)CN1CC(C)OC(C)C1 (stereo not drawn) | active: 31.6 µM
COCCNc1nc(-c2cc(C)n(CCc3ccc(OC)cc3)c2C)cs1 | inconclusive [inhibitor, partial curve]
O=C1C=C(c2cccc(Br)c2)C[C@@H](c2ccc(F)cc2)C1 | inconclusive [inhibitor, single point]
Cc1ccc(CCC(=O)Nc2ccc([N+](=O)[O-])cc2Cl)o1 | inconclusive [inhibitor, partial curve]
COc1ccc(-c2[nH]ncc2/C=C(/C#N)C(=O)NC2CCCCCC2)cc1 | inconclusive [inhibitor, single point]
COc1ccccc1Oc1nc2c(c(=O)n(Cc3ccccc3F)c(=O)n2C)n1C | active: 2.82 µM
Cc1ccc(S(=O)(=O)N2CCC(C(=O)NCCCN3CCCCCC3)CC2)cc1 | inconclusive [inhibitor, partial curve]
COc1ccc(C)cc1NC(=O)c1ccc(S(=O)(=O)N2CCCCC2)cc1 | inactive
Cc1cccc(-c2noc(-c3ccccc3C(=O)NCc3ccco3)n2)c1 | active: 22.4 µM
COc1cccc(C2C=C(c3cccs3)Nc3ncnn32)c1OC (stereo not drawn) | inconclusive [inhibitor, partial curve]
O=C(NNC(=O)[C@H]1CC=CC[C@H]1C(=O)O)c1ccc(Cl)cc1Cl | inactive
CCOC(=O)C(C)/C(C)=N\Nc1ccc([N+](=O)[O-])cc1[N+](=O)[O-] (stereo not drawn) | inconclusive [inhibitor, single point]
Cc1oc(=O)c(NC(=O)c2cccc(Cl)c2)cc1C(=O)c1ccccc1 | active: 4.47 µM
COC(=O)C(CC(C)C)N1CCC(=O)c2ccccc2S1(=O)=O (stereo not drawn) | inconclusive [inhibitor, partial curve]
O=C(CC(c1ccco1)S(=O)(=O)c1ccccc1)c1ccc(F)cc1 (stereo not drawn) | active: 1.58 µM
CCCCC1CCC(C(=O)N(CC(C)C)c2c(N)n(Cc3ccccc3)c(=O)[nH]c2=O)CC1 (stereo not drawn) | inconclusive [inhibitor, partial curve]

Compound | Potency
O=C1OCCC1Sc1nnc(-c2ccco2)n1-c1ccccc1 (stereo not drawn) | inconclusive [inhibitor, partial curve]
O=C(CNc1ccc(F)cc1)N/N=C/c1c(O)ccc2ccccc12 | inconclusive [inhibitor, single point]
COc1ccc(-c2csc(-c3nc(-c4ccc(Br)s4)cs3)n2)cc1F | inactive
CC(O)c1nc2ccccc2n1Cc1ccccc1 (stereo not drawn) | active: 5.62 µM
COCCNC(=O)/C(C#N)=C/c1ccc(N2CCOCC2)o1 | inconclusive [inhibitor, partial curve]
CCCC[n+]1ccn(-c2nc3ccccc3nc2[N-]S(=O)(=O)c2cccs2)c1 | inactive
CC1=C(C(=O)Nc2cccc(F)c2)C(c2ccsc2)C2=C(CC(C)(C)CC2=O)N1 (stereo not drawn) | inconclusive [inhibitor, single point]
Cc1ccc(-c2nc3c(C)cccn3c2Nc2ccccc2C)s1 | active: 8.91 µM
Clc1ccc(-c2cn3c(n2)SCC3)cc1 | inactive
CCOc1ccc(CNc2ccc(N3CCN(Cc4ccccc4)CC3)cc2)cc1 | inactive
COc1ccc(CN(C)C(=O)CNC(=O)c2ccc3ccccc3c2)c(OC)c1 | inconclusive [inhibitor, single point]
O=C(C1=C(O)C(=O)N(CCN2CCOCC2)C1c1ccc(Br)cc1)c1cc2ccccc2o1 (stereo not drawn) | active: 31.6 µM
Cc1c(OCC(F)(F)F)ccnc1CSc1nc2ccccc2[nH]1 | inactive
CCNC(=O)NC1(C(=O)Nc2ccc3c(c2)CCC3)CCCCC1 | inconclusive [inhibitor, single point]
CN(c1ccc(C(=O)NCc2ccco2)cc1)S(C)(=O)=O | inactive
Cc1cc(-n2nnc3ccccc32)nc2ccccc12 | inactive
COc1ccccc1CN1C(=O)CCC1(C)C(=O)NCc1cccnc1 (stereo not drawn) | inconclusive [inhibitor, partial curve, poor fit]
Cc1ccc(C)c(NC(=O)c2nc(S(C)(=O)=O)ncc2N(Cc2ccc(C(C)(C)C)cc2)Cc2ccco2)c1 | inconclusive [inhibitor, single point]
O=C(CN1CCN(S(=O)(=O)c2ccc(Br)s2)CC1)N1CCCCC1 | inconclusive [inhibitor, partial curve]
CC(C)(C)CC(=O)Nc1cc(S(=O)(=O)N2CCOCC2)ccc1N1CCCC1 | inactive
CCOC(=O)Cn1cnc2c(C#N)c3n(c2c1=O)CCCCC3 | inconclusive [inhibitor, partial curve, poor fit]
Cc1ccc(-c2nc3cc(N)ccc3o2)cc1Br | inactive
Cc1cccc(N(C(=O)c2snc(C(N)=O)c2N)C(C(=O)NC2CCCC2)c2ccc(C)o2)c1 (stereo not drawn) | inconclusive [inhibitor, full curve]
COc1ccc(N(CC(=O)Nc2ccc(F)cc2)S(=O)(=O)c2ccccc2[N+](=O)[O-])c(OC)c1 | inactive
CNc1nc2cc([N+](=O)[O-])c([N+](=O)[O-])cc2nc1NC | inactive

Compound | Potency
COc1ccc(S(=O)(=O)NCc2ccc3c(c2)OCO3)cc1OC | inactive
CCn1c(=O)c(C(=O)Nc2ccc(C)cc2C)c(O)c2ccccc21 | inconclusive [inhibitor, single point]
O=C1CC(N2CCN(c3ccccc3Cl)CC2)C(=O)N1c1ccc(F)cc1 (stereo not drawn) | inconclusive [inhibitor, partial curve]
Cc1cc2nc3n(c2cc1C)CC1CC(C(=O)NCCC(C)C)N(C)C31 (stereo not drawn) | inconclusive [inhibitor, partial curve]
CC(=O)c1ccc(NC(=O)COC(=O)c2c3c(nc4ccccc24)/C(=C\c2cccs2)CCC3)cc1 | inactive
COc1ccccc1CCNC(=O)Cn1c(=O)oc2ccccc21 | inconclusive [inhibitor, partial curve]
COc1cc(/C=C/C(=O)OCC(=O)Nc2ccc3c(c2)OCCO3)ccc1O | inconclusive [inhibitor, partial curve]
COc1ccc(-n2ccnc2CN2CCN(C3CCCC3)C(CCO)C2)cc1 (stereo not drawn) | active: 25.1 µM
Oc1ccccc1N=Nc1nc(-c2ccccc2)c(-c2ccccc2)[nH]1 | inactive
CCOC(=O)C(C)Oc1ccc(C2NC(=O)NC(C)=C2C(=O)Nc2ccccc2C)cc1 (stereo not drawn) | inactive
Cc1cc(NC(=O)c2ccccc2C)no1 | inconclusive [inhibitor, full curve, poor fit]
Cc1noc(C)c1C(=O)OCC(=O)Nc1ccc(S(N)(=O)=O)cc1 | inactive
COc1ccccc1CNC(=O)Cn1ncc2c(C)n(Cc3ccccc3Cl)c(C)c2c1=O | inconclusive [inhibitor, single point]
CC(=O)c1ccc(NC(=S)Nc2ccc(N3CCOCC3)cc2)cc1 | active: 44.7 µM
Cn1c(=O)c2c(ncn2CCN(CCO)Cc2ccccc2)n(C)c1=O | active: 44.7 µM
COc1ccc(-c2nc(SCC(=O)NC3CCCCC3)n[nH]2)cc1 | inactive
O=C(NCc1ccccc1)C(=O)NCC(c1ccco1)N1CCN(c2ccccc2F)CC1 (stereo not drawn) | inconclusive [inhibitor, single point]
COc1ccc(/C=C(/NC(=O)c2ccccc2)C(=O)NC(Cc2c[nH]c3ccccc23)C(=O)O)cc1 (stereo not drawn) | inconclusive [inhibitor, single point]
CCOC(=O)C1=C(NC#N)OC(C)=C(C)C1c1ccc(O)cc1 (stereo not drawn) | inconclusive [inhibitor, partial curve]
O=C(CSc1ccc2nnc(-c3cccs3)n2n1)N1CCCC1 | inactive
Nn1cnnc1N/N=C/c1cc([N+](=O)[O-])c(Cl)cc1Cl | inconclusive [inhibitor, partial curve]
Cc1cccc(C2C3=C(CCCC3=O)N=C3c4ccccc4C(=O)C32)c1 (stereo not drawn) | inconclusive [inhibitor, partial curve]
CCCCNC(=S)Nc1ccc2[nH]c(=O)[nH]c2c1 | inconclusive [inhibitor, single point]
